In PubChem BioAssay AID624296 (National Center for Advancing Translational Sciences (NCATS), 2012):
About 9,900 (2.8%) of roughly 350,000 compounds were called active. Inconclusive means that the source gave no clear call. Such entries were picked first, then a sample of the others. Calls follow the shape of the dose curve; as a rule, active = well fitted activation curve with a large enough effect; inconclusive = small, poorly fitted or top-dose-only effect; inactive = no such curve, though single readings can be large or run the other way. No potency is given beside an inconclusive call; the fits are too rough.

test: A quantitative high throughput screen for small molecules that induce DNA re-replication in MCF 10a normal breast cells.; also: nearly all actives have a fitted effect of over 50% in size; as to activity, positive = re-replication: % of control where 0% means no effect; settings: MCF 10A DNA re-replication, Hoechst nuclear intensity, 48 h; activity, positive = re-replication: at 46.1 µM (top of the series)
Potency is read from the fitted curve at half-maximal effect; tags tell the direction and shape of the fitted curve.

| SMILES | Potency | activity, positive = re-replication |
| --- | --- | --- |
| CCC1Oc2ccc(C)cc2N(Cc2cccc(C)c2)C1=O (stereo unspecified) | active: 11.6 µM | – |
| CCN(CC)c1ncnc2c1ncn2Cc1c(Cl)cccc1Cl | inconclusive [activator, full curve, poor fit] | – |
| CC(=O)Nc1ccc(Nc2nc(C)c([N+](=O)[O-])c(Nc3ccc(NC(C)=O)cc3)n2)cc1 | – | inactive: 20.3% |
| CCOc1ccc(-n2c(SCc3ccc(C#N)cc3)nnc2-c2cccnc2)cc1 | inconclusive [activator, full curve, poor fit] | – |
| Cc1ccc(SCC(=O)N2c3ccccc3Sc3ccccc32)cc1 | active: 7.31 µM | – |
| O=C(Nc1ccccc1F)c1cc2nc(C(F)F)cc(C(F)F)n2n1 | inconclusive [activator, single point] | – |
| COc1ccc(-c2csc(NC(=O)c3ccccc3NS(=O)(=O)c3ccc(C)cc3)n2)cc1 | inconclusive [activator, full curve] | – |
| CC(=O)O[C@H]1C[C@@]2(O)[C@@H](OC(=O)c3ccccc3)C3[C@@](C)([C@@H](O)C[C@H]4OC[C@@]34OC(C)=O)[C@@H](O)[C@H](OC(C)=O)C(=C1C)C2(C)C (stereo partly specified) | inconclusive [activator, single point] | – |
| Cc1ccc(C(=O)Nc2ccc(Cl)cn2)cc1 | – | inactive: 22.2% |
| COC(=O)C1=C(COc2ccc(F)cc2)NC(=O)NC1c1ccc(C)cc1C (stereo unspecified) | – | inactive: 4.32% |
| COc1cccc(Nc2nc(C)nc3c2oc2ccccc23)c1 | inconclusive [activator, single point] | – |
| CCOC(=O)c1nnn(-c2nonc2N)c1CSc1ccc(C)cc1 | inconclusive [activator, single point] | – |
| c1ccc(-n2nnnc2Sc2ncnc3sc4c(c23)CCCC4)cc1 | active: 20.6 µM | – |
| CN1CCN(C(=S)c2ccc(OCC(=O)Nc3cccc(C(F)(F)F)c3)cc2)CC1 | inconclusive [activator, single point] | – |
| Cc1nc(SCC(=O)Nc2ccc(CN3CCCC3)cc2)c2c(C)c(C)sc2n1 | inconclusive [activator, single point] | – |
| CN(C(=O)C1CCC(CNS(=O)(=O)c2cccc3cccnc23)CC1)C1CCCCC1 (stereo unspecified) | – | inactive: 12.8% |
| CC(C)CCOc1ccc(C2(C)NC(=O)NC2=O)cc1 (stereo unspecified) | – | inactive: -5.67% |
| O=c1cc(C(F)(F)F)nc(SC/C=C/c2ccccc2)[nH]1 | inconclusive [activator, single point] | – |
| COC(=O)[C@]1(C)N[C@H](c2ccc(-c3ccccc3)cc2)[C@@H]2C(=O)N(C)C(=O)[C@@H]21 | – | inactive: -0.585% |
| O=C(Nc1ccc2c(c1)OCO2)c1cc(-c2ccncc2)nc2ccccc12 | active: 18.4 µM | – |
| C[C@]12c3[nH]c4ccc(Cl)cc4c3CCN1C(=O)[C@@H](CC(=O)NCc1cccc(C(F)(F)F)c1)C[C@@H]2C(=O)N1CCCCC1 | inconclusive [activator, single point] | – |

| SMILES | Potency | activity, positive = re-replication |
| --- | --- | --- |
| COc1cccc(/C=C/C(=O)OCC(=O)NCCCc2ccccc2)c1OC | – | inactive: -7.05% |
| CCC(=O)c1ccc(OCc2ccc(C(=O)c3ccccc3)cc2)cc1 | – | inactive: -7.21% |
| Cc1ccc(NC(=O)NC(=O)N(C(C)C)S(=O)(=O)c2ccc(C)cc2)cc1 | inconclusive [activator, partial curve, poor fit] | – |
| COCCn1c(SCC(=O)NCc2ccc(F)cc2)nc2ccccc21 | – | inactive: 14.6% |
| c1csc(-c2csc3nc(CN4CCOCC4)nc(NCc4ccc5c(c4)OCO5)c23)c1 | inconclusive [activator, single point] | – |
| CCOC(=O)c1cnc(SC)nc1Sc1ccccc1Cl | inconclusive [activator, single point] | – |
| O=C(O)c1ccccc1N/N=C/C1=C(N2CCOCC2)C(=C\c2ccccc2)/CC1 | inconclusive [activator, partial curve, poor fit] | – |
| O=C(c1ccc2c(c1)OCO2)N(Cc1ccco1)C1(C(=O)NC2CCCCC2)CCCCC1 | – | inactive: 11.8% |
| COc1ccc(C2=CC3=C(Br)C(=O)C(C)(OC(=O)C4CCCC4)C(=O)C3=CO2)cc1 (stereo unspecified) | inconclusive [activator, single point] | – |
| O=C(c1cccc(C(F)(F)F)c1)C1CCCN(Cc2ccc(OCCO)cc2)C1 (stereo unspecified) | inconclusive [activator, single point] | – |
| COc1ccc(-c2csc(Nc3ccc(S(=O)(=O)Nc4cc(OC)nc(OC)n4)cc3)n2)cc1 | inconclusive [activator, single point] | – |
| Cn1ccc2ccc(C3=CC(=O)C[C@H](c4ccc(F)cc4)C3)cc21 | inconclusive [activator, partial curve, poor fit] | – |
| CC1CCCN(C(=O)c2ccncc2)C1 (stereo unspecified) | inconclusive [activator, partial curve, poor fit] | – |
| CCOC(=O)c1nnn(-c2nc(N3CCCC3)nc(N3CCCC3)n2)c1-c1ccccc1 | – | inactive: 6.43% |
| O=C(Cc1ccc2c(c1)OCCO2)Nc1cc(C(F)(F)F)ccc1N1CCOCC1 | inconclusive [activator, single point] | – |
| CN(C)C(CNC(=O)c1ccc(S(=O)(=O)Nc2ccccc2)cc1)c1ccco1 (stereo unspecified) | inconclusive [activator, partial curve, poor fit] | – |
| O=C(Nc1ccc(Cl)c(Cl)c1)OCCNC(=O)c1cccc(Cl)c1 | inconclusive [activator, single point] | – |
| O=C(Nc1ncccn1)c1cc(-c2cccc(Br)c2)nc2ccccc12 | inconclusive [activator, single point] | – |
| O=C(Nc1cccc(S(=O)(=O)NC2=NCCCCC2)c1)c1cc(-c2ccccc2)nc2ccccc12 | inconclusive [activator, single point] | – |
| CCN(CC)C(=O)[C@H]1C[C@H](CC(=O)NCCCN(C)C)C(=O)N2CCc3c([nH]c4ccc(Cl)cc34)[C@]12C | inconclusive [activator, full curve, poor fit] | – |
